Structures are written as SMILES. Hit rate of the full screen: of about 46,000 compounds, about 60 (0.1%) were called active. About 3% were inconclusive and are not listed. Calls come from the whole dose curve; as a rule, active = well fitted inhibition curve with a large enough effect; inconclusive = small, poorly fitted or top-dose-only effect; inactive = no such curve, though single readings can be large or run the other way. The list shows a part of the results.

The text below walks through data of PubChem BioAssay AID1963576 (National Center for Advancing Translational Sciences (NCATS), 2024).

A short description of the experiment: Primary qHTS assay for Inhibitors of ovarian cancer metastasis using an organotypic tumor microenvironment (TME) model.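 For activity change, negative = inhibition: plate controls were DMSO wells for no effect and tomatine positive control wells for full effect.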 Note: nearly all actives have a fitted effect of over 65% in size. The settings on record: SKOV3ip1-GFP adhesion/invasion on 3D omental model, fluorescence; series mostly up to 45.8 µM; activity change, negative = inhibition: at the top concentration. In a few lines:
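Adhesion/invasion was scored as fixed GFP-labeled SKOV3ip1 cell counts (488/509 nm), normalized to DMSO and tomatine controls. Cancer cells in serum-free medium, with four compound doses (0.36-46 umol/L), sat 2 hr at RT then 16 hr at 37 C on a 48 hr fibroblast/mesothelial/ECM culture.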
(In qHTS, concentration-response curves come from the screen itself.)
On to `COc1ccc(-c2nnc(SCC(=O)Nc3ccc(C)c(Cl)c3)nc2-c2ccc(OC)c(OC)c2)cc1OC`, for which the call was inactive.
For the molecule `CCOc1ccc(NC(=O)c2c(NC(=O)c3ccncc3)sc3c2CCC(C(C)(C)C)C3)cc1` (configuration not stated), the “activity change, negative = inhibition” value is inactive: 8.49%.
`Cc1cccc(OCC(=O)NCc2ccc3c(c2)CCN3C(=O)c2ccc(Cl)cc2)c1`: the “activity change, negative = inhibition” value is inactive: 0.0489%.
The same measure, in the same setting: the result for `O=C(c1cccn1-c1nnc(N2CCCC2)s1)N1CCN(c2ccc(F)cc2)CC1` reads inactive: -0.169%.
Still for that read-out and setting: the result for `COc1ccc(Cl)cc1S(=O)(=O)N1CCC(c2ccncc2)CC1` reads inactive: 2.12%; that for `COc1cccc(/C=C/c2nc3ccccc3c(=O)n2-c2ccc(C)c(C)c2)c1OC`, inactive: -11.2%.
In the case of `Cc1nc(N)c(S(=O)(=O)c2ccccc2)c(Nc2ccc(Br)cc2)n1`, the molecule was called inactive.
`CC(=O)N1c2ccccc2CC1C(=O)N1CCN(c2cc(Cl)ccc2C)CC1` (configuration not stated): the “activity change, negative = inhibition” value was inactive: 0.0265%.
Take `COc1ccc(NC(=O)c2ccco2)cc1NC(=O)COc1cc(C)ccc1C(C)C`: the molecule was classed as inactive.
With `Cc1cccc(CNC(=O)CN2CC(C)Sc3ccccc32)c1` (configuration not stated), the “activity change, negative = inhibition” value is inactive: -2.47%.
As to `CC(C(=O)O)c1ccc(-c2ccccc2)c(F)c1` (configuration not stated), the “activity change, negative = inhibition” value is inactive: -4.58%.
Regarding `O=C(Nc1ccc(F)cc1)Nc1nnc(SCC(=O)N2CCCCC2)s1`, the call was inactive.
Consider `CC(=O)Nc1ccc(NC(=O)CN2C(=O)CCc3cc(S(=O)(=O)N4CCCCC4)ccc32)cc1`, for which the “activity change, negative = inhibition” value is inactive: 3.28%.
As for `O=C(Cn1cc(SCc2ccc(Cl)cc2)c2ccccc21)N1CCCC1`, the “activity change, negative = inhibition” value was inactive: -6.78%.
As for `Cc1c(C(=O)N(Cc2cccc(Cl)c2)Cc2ccco2)oc2ccccc12`, the molecule was classed as inactive.
As to `COc1ccc(C)cc1NS(=O)(=O)c1cc(Br)cc2c1N(C(C)=O)C(C)C2` (configuration not stated), the call was inactive.
`COc1cccc(NC2=CC(c3ccc(C(C)C)cc3)N(c3cccc(OC)c3)C2=O)c1` (configuration not stated): the “activity change, negative = inhibition” value is inactive: 2.32%.
The same measure, in the same setting: as for `CCc1ccccc1NC(=O)Nc1ccc2snnc2c1`, the figure is inactive: 8.72%; as for `COc1cc(NC(=O)CCCc2nnc3n(C)c(=O)c4sccc4n23)cc(OC)c1OC`, inactive: 9.44%; as for `Cc1cccc(CC(=O)N2CC(=O)Nc3ccc(F)cc3C2c2ccccc2)c1` (configuration not stated), inactive: -5.86%.
As for `O=C(CSCc1ccc(F)cc1)NCc1ccc(F)cc1`, the result was inactive.
Take `Cc1ccc(CNC(=O)CSc2c(C(C)C)cnc3c2c(=O)n(C)c(=O)n3C)cc1`: the “activity change, negative = inhibition” value was inactive: -5.43%.
Still for that read-out and setting: as for `O=C(CSc1nc(Nc2ccc(F)c(F)c2)c2ccccc2n1)c1ccc(Cl)cc1`, the figure is inactive: -4.11%.
As for `CCc1ccc(NS(=O)(=O)c2ccc3[nH]c4c(c3c2)CCCCCC4)cc1`, the molecule was classed as inactive.
As for `Cc1cccc(-n2ncc(C(=O)NCc3ccc4c(c3)OCO4)c2C2CCN(C(=O)OC(C)(C)C)CC2)c1`, the molecule was called inactive.
On to `CCOc1ccccc1Nc1nc2c(S(=O)(=O)c3ccc(C)cc3)nnn2c2ccsc12`, for which the “activity change, negative = inhibition” value is inactive: -5.19%.
Regarding `COc1ccc(-c2cccc(NS(=O)(=O)c3ccc(NC(C)=O)cc3)c2)nn1`, the “activity change, negative = inhibition” value was inactive: 1.43%.
As to `CCc1ccc(NC(=O)CN2C(=O)CC(c3ccccc3)Sc3ccccc32)cc1` (configuration not stated), the call was inactive.
`CCCCN(C)CCNC(=O)c1cc(-c2ccc(Cl)s2)nc2ccccc12`: the molecule was classed as inactive.
Take `CC(C)(C)OC(=O)N1CCC(c2c(C(=O)NCCN3CCOCC3)cnn2-c2ccc(F)cc2F)CC1`: the “activity change, negative = inhibition” value is inactive: 24.6%.
Turning to `CCOc1cc(/C=C(\C#N)C(=O)Nc2ccc(OC)cc2)ccc1OCc1cc(=O)n2nc(CC)sc2n1`, the “activity change, negative = inhibition” value is inactive: -4.31%.
Same read-out and setting: as for `CC(=O)Nc1ccc(NC(=O)c2ncoc2-c2ccco2)cc1`, the figure is inactive: -15%.
For `Cc1ccc2nc(CSc3nnc(NC(=O)c4ccc(C(C)(C)C)cc4)s3)cc(=O)n2c1`, the “activity change, negative = inhibition” value was inactive: 2.66%.
As for `CCc1cccc(C)c1NC(=O)CN1C(=O)c2cccc3cccc1c23`, the call was inactive.
On to `CCOC(=O)c1c(-c2ccccc2)csc1NC(=O)c1nc(SCC)ncc1Cl`, for which the “activity change, negative = inhibition” value was inactive: -10.8%.
The same measure, in the same setting: the result for `Cc1ccc(-c2nc3scc(CCNS(=O)(=O)c4ccc(Oc5ccccc5)cc4)n3n2)cc1` reads inactive: -15.3%.
Regarding `COc1ccc(NC(=O)CSc2cn(CCNC(=O)c3ccc(OC)cc3)c3ccccc23)cc1`, the outcome was inactive.
Consider `COc1cccc(/C=C(\C#N)C(=O)Nc2ccc(NC(C)=O)cc2)c1OC`, for which the “activity change, negative = inhibition” value was inactive: -2.17%.
Still for that read-out and setting: as for `CCc1nc2sc3c(N4CCCCC4)ncnc3c2c2c1CCCC2`, the figure is inactive: 1.41%.
On to `Cc1ccc(CN2C(=O)C3(c4ccccc42)N(c2ccc(C)c(Cl)c2)C(=O)CS3(=O)=O)cc1` (configuration not stated), for which the result was inactive.
Take `CCC(C)[C@H](N)c1nnc(SCc2ccc(Cl)c(Cl)c2)o1` (some centres not stated): the “activity change, negative = inhibition” value was inactive: -7.13%.
As to `COc1ccc(Br)cc1CNC(=O)CSc1n[nH]c(-c2ccccc2)n1`, the “activity change, negative = inhibition” value was inactive: -1.17%.
With `COc1ccc(NC(=O)CCS(=O)(=O)c2ccc3c(c2)n(C)c(=O)c(=O)n3C)cc1Cl`, the “activity change, negative = inhibition” value was inactive: 2.59%.
With `O=C(CCC1N=C2c3ccccc3N=C(SCc3cccc(Cl)c3)N2C1=O)NCCc1ccccc1` (configuration not stated), the molecule was called inactive.
Still for that read-out and setting: as for `Cc1oc(-c2cccc(Br)c2)nc1Cn1c(SCc2cccc(F)c2)nc2cccnc21`, the entry is “inactive”.
Take `CCn1c(CN2CCCCC2)nc2cc(NC(=O)COc3ccc(C(C)(C)C)cc3)ccc21`: the “activity change, negative = inhibition” value is inactive: -3.85%.
As for `COc1ccc2c(c1)NC(c1ccc(Cl)cc1)=NC(c1cccs1)=N2`, the “activity change, negative = inhibition” value is inactive: -4.46%.
